The RNAGym collection of RNA variant scans (doi:10.1073/pnas.2313332121)
Variants at the floor of the assay are shown more often than the library holds them.

B1: TPR 5TU (parent)
chain: GGAUCUUCUCGAUCUAACAAAAAAGACAAAUCUGCCACAAAGCUUGAGAGCAUCUUCGGAUGCAGAGGCGGCAGCCUUCGGUGGCGCGAUAGCGCCAACGUUCUCAACUAUGACACGCAAAACGCGUGCUCCGUUGAAUGGAGUUUAUCAUG

Variants of: B1
Assay: polymerase ribozyme fitness, log enrichment relative to wild type (log ratio); higher = more active; in vitro selection for triplet polymerase activity
Outline: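 For each subunit of a heterodimeric triplet polymerase ribozyme, a mutant library was built by PCR and transcribed, then taken through a single in vitro selection round in triplicate. Selection involved annealing to a biotinylated primer, the partner subunit and triplets, incubation frozen at −7 °C, gel excision of extended constructs, capture on streptavidin beads and RT-PCR. Genotypes were retained after Illumina sequencing of inputs and outputs only with ≥10 input reads and ≥1 read in each output. Fitness is defined as the logarithm of a genotype's enrichment relative to wild-type enrichment, using inverse-variance-weighted averages across replicates, with the logarithm taken to base 2.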

Polymerase ribozyme fitness (log ratio), -0.579:
A40C C96U

Polymerase ribozyme fitness (log ratio), -3.58:
A39U A89G G126U

Polymerase ribozyme fitness (log ratio), -3.09:
A39G G83A G141C

Polymerase ribozyme fitness (log ratio), -1.13:
C38U U56A A60U C95A

Polymerase ribozyme fitness (log ratio), -3.64:
A39G G42A

Polymerase ribozyme fitness (log ratio), -1.98:
C38U U55G G83U U135C

Polymerase ribozyme fitness (log ratio), -3.23:
A39G A47C C123U A150G G152A

Polymerase ribozyme fitness (log ratio), -2.11:
A39U C96G

Polymerase ribozyme fitness (log ratio), -2.32:
A39G G94C

Polymerase ribozyme fitness (log ratio), -1.66:
A39C U145C

Polymerase ribozyme fitness (log ratio), -3.67:
A39G G59A C96G U146C

Polymerase ribozyme fitness (log ratio), -0.185:
A40C A97U

Polymerase ribozyme fitness (log ratio), ≤ -4.2:
C38U G74C U82C G86A C93G
C38U G83U C149G A150C
C38U G84U C93G A97U A120C
C38U G88A A147U C149U U151G
C38U U44A C54U G83C C96U C108G G143U
C38U U45G U61C U145A
C38U U53A A106G A107C C125A
C38U U56A A64G C87U
C38U U56A G58A G84U C87U C105U C108G
C38U U56A G68U A106U C118U G133C
C38U U61G G92U C116G G140A U144C
C38U U82G C95G A98G U127G C131G
C38U U90G C95A
A39C A40C A49C
A39C A41C G86U U139G
A39C A47C G62A C85U A98U U134A
A39C A49G U55A C57A C93A
A39C A49G U56A C99U C105A
A39C A60C G86U
A39C A66C A73U
A39C C43U C96U C103A
A39C C51A G74A G84A U104A
A39C C63A A64U G84A C93G C116G
A39C C85G A120G G126U
A39C C85G C105G C125G U134C
A39C C87G
A39C C93A
A39C G42C G86A C116U C118U
A39C G46C U55A G59C G83U G84U G124A
A39C G46U U55G C99U C116G C125G A138C C149G
A39C G48C G67U C87A G126U C131U A142U
A39C G48U G80C U111G
A39C G62U G70A A115G
A39C G80C
A39C G81C C85U C116A G141C
A39C G92U C95A G112A U145G
A39C U44A G92A A106G A107G U146G
A39C U44G C75U C95U A119U G128U
A39C U45A A49C A52U G71U C93U U101C C116A G140U
A39C U45C U53A G68C G94C C108G G133C G136U
A39C U53A C63U C87G
A39C U53A G74C
A39C U61A U101G A110G
A39C U90C
A39G A40C C75G
A39G A40G A41U U44A G62A G136A U139C G141C
A39G A73G C76A C87U C103U U146A
A39G A89C A97U G126A A147G
A39G A89G C95G A110U
A39G A110G
A39G C75A G83A G94U G124U
A39G C79A C96U A122G G124U G141C
A39G C85U C103A
A39G C87U A147C C149A
A39G C93A C118G
A39G G42A A107C
A39G G42A C87G
A39G G42C A47C G81A G133U G136A
A39G G58C C85U U151A
A39G G83U A113U C116U C125U G143A
A39G G88A C99U A107C C114G U139A
A39G G117U A147G
A39G U45A A49U U61A C75U G83U C129G U144G
A39G U53G C54G A73G G83A G84A G117C U151G G152U
A39G U56G G58C C79U U102A U127G
A39G U61A G62C
A39G U77A G143C
A39G U77G
A39U A41C G80C G84U A142C C149A
A39U A41U U56A G71A
A39U A47C G59U G68C C79A A98U G141U
A39U A47G U53G A73G U82A G86A G128C
A39U A47U G65A C87U A98C A107G G141C G152A
A39U A47U U82G C114U U144C
A39U A49C C85G C87G G94C G133A U144G
A39U A49C G50U A64C C75U G84C
A39U A49G A52G C72A C96U
A39U A49G G50A C75G C93G C103G C123A
A39U A52C A150C
A39U A52G C72A U82A G94A C123U
A39U A52U U77C C79U G94A G136A
A39U A60G U77A G81U C93A
A39U A60G U77G C79U C85U
A39U A64G G86A A89G U135A
A39U A66C G68A C108U A121U U134A G143U
A39U A66G G88A A107U C114G
A39U C43A C75G C87U C118U
A39U C43A G50A C72U G86A U101A G117U
A39U C43U C85U G117U G126C C132G
A39U C54U C57G U61A C95G C125G
A39U C54U U55G C93U C103U
A39U C72A G83A A137U
A39U C76A G86C G126A C132U U134A
A39U C79G G84U
A39U C85G C96A A107G
A39U C87G C108U C125G U127G
A39U C93A C95A C129A
A39U G48A C93A
A39U G67A A97G G128A U148C
A39U G71C G84A C103U
A39U G84U A91U U151C
A39U G92C U127A
A39U U44A C75A U101A U127A
A39U U44A C79G C132G U139A
A39U U44C U53A G62U G86A
A39U U44G A60U C75U C93U C95G C149A U151G
A39U U55A G83U C95G A115C C149G
A39U U77G G124C U135G U146A
A39U U101C A120U C132U U134A
A39U U102A G133C
A40C A41G G65A C69U C85U U102C A106G C129G U148G
A40C A41U A73U G83A C95U A147C
A40C A49C C54A C96U C114U G126A
A40C A49C G88C G117A G141U U146A A150C
A40C A49C U77C
A40C A49U C57A C76A U82C G94U
A40C A49U U55A C93A C96G A98U U144C U146G
A40C A49U U56A C57A G88C U135A A137U
A40C A52U G68C C85A G128C
A40C A60G C76G C85U G124C
A40C A60U C72A G81C G88U G124C A147G
A40C A91C
A40C C51U A66U G124A
A40C C54U G71A A89U C114U G117A
A40C C75G C85A G141U
A40C C75G U82G C93G A138G G140C
A40C C76U C93G G152A
A40C C99G U127A U139G G143A U148C
A40C C116G G117U C129U G141C
A40C G42A A49G G62C C93A
A40C G50C C79U G81C C118U

Polymerase ribozyme fitness (log ratio), -3.19:
A39G C105G

Polymerase ribozyme fitness (log ratio), -2.42:
C38U G84U

Polymerase ribozyme fitness (log ratio), -2.17:
A39U G59C G83U A147U

Polymerase ribozyme fitness (log ratio), -2.72:
A39U C54U C96A

Polymerase ribozyme fitness (log ratio), -0.693:
A39G A147U

Polymerase ribozyme fitness (log ratio), -2.13:
A40C A98G C131U U134A

Polymerase ribozyme fitness (log ratio), -3.47:
A39C A41C A115G G124A

Polymerase ribozyme fitness (log ratio), -2.81:
A39U C96A

Polymerase ribozyme fitness (log ratio), -2.27:
A39U C85U

Polymerase ribozyme fitness (log ratio), -0.91:
A40C C87U

Polymerase ribozyme fitness (log ratio), -3.43:
A40C C57A U139C

Polymerase ribozyme fitness (log ratio), -1.75:
A40C C75U C116U A119C

Polymerase ribozyme fitness (log ratio), -1.04:
A39U G117U

Polymerase ribozyme fitness (log ratio), -3.73:
A39C G59C G86A

Polymerase ribozyme fitness (log ratio), -2.08:
A39C U56A G59C

Polymerase ribozyme fitness (log ratio), -3.92:
A40C C85U G133C A142G

Polymerase ribozyme fitness (log ratio), -3.57:
A39C G133C U146A

Polymerase ribozyme fitness (log ratio), -2.2:
A39C U55A C118U

Polymerase ribozyme fitness (log ratio), -3.91:
A39G A73G U109A A119U

Polymerase ribozyme fitness (log ratio), -3.2:
A39U C95U C96A G124A

Polymerase ribozyme fitness (log ratio), 1.5:
A40C A97C

Polymerase ribozyme fitness (log ratio), -4.19:
A39G G59A C116U U144C

Polymerase ribozyme fitness (log ratio), -3.15:
A39G C57A C99G

Polymerase ribozyme fitness (log ratio), -3.93:
A39U U61C C96A
